# According to the supplement of paper PMC7125110:
# ± gives the standard error. Variants at the background level are over-represented here.
# B1: glmS ribozyme (parent)
# chain: AUAAAAGCGCCAGAACUACAGAAAUGUAGUUGACGAGGAGGAGGUUUAUCGAAUUUUCGGCGGAUGCCUCCAAA
# Variants of: B1
# Assay: self-cleavage kobs at 2500 uM GlcN6P; higher = faster cleavage; RNA array
# Conditions: with glucosamine-6-phosphate
# In short: (§1)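 Tracking of barcoded ribozyme variants used a hybridised Cy3 probe at 37 °C, after in situ transcription by E. coli RNA polymerase on sequenced MiSeq chips. The flowed solution held 40 μM to 10 mM glucosamine-6-phosphate in HEPES/KCl/Mg(OAc)2 buffer, and imaging ran over ~14 h. kobs was taken from exponential decay fits of normalised per-tile medians, and kcat and KM from weighted Michaelis–Menten fits.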
row,Variant,self-cleavage kobs at 2500 uM GlcN6P [s⁻¹]
1,C16G G32C G35C A36U A53C C70A,< 1e-05
2,C16G G32C G40U U69C,< 1e-05
3,C16G G32C G41U U69C,< 1e-05
4,C16G G35A G60C,< 1e-05
5,C16G G40U U69G,< 1e-05
6,C16G G43A U57A G66U U69A,< 1e-05
7,C16G U30C C34G U55C C61U C67U,< 1e-05
8,C16G U45C G62U,< 1e-05
9,C16U C50G U55C,7.17e-05 ± 2.1e-05
10,C16U G32A,0.00201 ± 0.00037
11,C16U G38A G43U,< 1e-05
12,C16U G43A C67A U69A,6.4e-05 ± 2.1e-05
13,C16U G43U,2.81e-05 ± 1.3e-05
14,C16U G51U A52C C68A C70U C71U,< 1e-05
15,C16U G60U G63U,< 1e-05
16,C16U U30G G32U A48G,< 1e-05
17,C16U U45A A48U G62A C68A,< 1e-05
18,C16U U49G G66C C71U,< 1e-05
19,C16U U57A G59C,< 1e-05
20,C19A C34U U45A A48U,< 1e-05
21,C19U G41C U55C C70A,0.000203 ± 9.2e-05
22,A23C G29C A36C A39G A48C G59A,< 1e-05
23,G26C U47C G60C,< 1e-05
24,G26U C34A C50U C68G,< 1e-05
25,G26U C58U,6.46e-05 ± 1.7e-05
26,G26U G43C,< 1e-05
27,G29A A33U U57C C58A,< 1e-05

row,Variant,self-cleavage kobs at 2500 uM GlcN6P [s⁻¹]
1,G29A G32U G60C,< 1e-05
2,G29A G35A G60C C67U,< 1e-05
3,G29A G38U U46G,< 1e-05
4,G29A G44C C58A G62U,< 1e-05
5,G29A G44C U54C,< 1e-05
6,G29A G44U A53U,< 1e-05
7,G29A U30C C34U G43U U47G C70U,< 1e-05
8,G29A U31G U54G,6.58e-05 ± 3.2e-05
9,G29A U45G A52C,< 1e-05
10,G29C A33C G66U C70G,< 1e-05
11,G29C A33U G35U G37C C61G,< 1e-05
12,G29C A36C G41U,< 1e-05
13,G29C A39C C58G,< 1e-05
14,G29C A48G G60U,< 1e-05
15,G29C C50U C68A,7.07e-05 ± 2.7e-05
16,G29C C58G G59C C61A G63A,< 1e-05
17,G29C G37A,7.11e-05 ± 1.8e-05
18,G29C G38U G40C C50G,< 1e-05
19,G29C G51A G62C,< 1e-05
20,G29C U31A,0.000502 ± 0.0001
21,G29U A42U C68A C71U,< 1e-05
22,G29U A42U G51A,< 1e-05
23,G29U A64G C67G,6.02e-05 ± 1.3e-05
24,G29U C50U C61U,< 1e-05
25,G29U G32C U56A,7.28e-05 ± 1.4e-05
26,G29U G32U A36U C61A C71G,< 1e-05
27,G29U G35A A53C,< 1e-05

row,Variant,self-cleavage kobs at 2500 uM GlcN6P [s⁻¹]
1,G29U G37A G59C,< 1e-05
2,G29U G37C U46G,< 1e-05
3,G29U G38A A52U,< 1e-05
4,G29U G38C U56G,< 1e-05
5,G29U G40U G62U G63A C71A,< 1e-05
6,G29U G44C A64U,< 1e-05
7,G29U G51U G60U,< 1e-05
8,G29U U30C U45G,< 1e-05
9,G29U U31A U69G C70A,8.63e-05 ± 2.8e-05
10,U30A A33U C34A A36C G37C U57G,< 1e-05
11,U30A A42C U45G U65G C70G,0.000761 ± 0.00026
12,U30A A53U G63C,< 1e-05
13,U30A C34G,< 1e-05
14,U30A C34G C50U G63A,< 1e-05
15,U30A G32C,6.18e-05 ± 2.8e-05
16,U30A G38A A52G,< 1e-05
17,U30C C34A A48U,< 1e-05
18,U30C C34A G60C C68U,< 1e-05
19,U30C G40A G43A C68A,< 1e-05
20,U30C G40U G51U,< 1e-05
21,U30G A33U G35A A64G,< 1e-05
22,U30G A39U A52C G60U,< 1e-05
23,U30G G32C,0.000149 ± 3e-05
24,U30G G32U G35A A53G,< 1e-05
25,U30G G32U U46G C58U,< 1e-05
26,U30G G37A G43C G44A C70G,< 1e-05

# Variants of: B1
# Assay: self-cleavage kobs at 10000 uM GlcN6P; higher = faster cleavage; RNA array
# Conditions: with glucosamine-6-phosphate
# In short: as §1
row,Variant,self-cleavage kobs at 10000 uM GlcN6P [s⁻¹]
1,C16U G43U,3.73e-05 ± 1e-05
2,G26U C58U,7.64e-05 ± 1.4e-05
3,G29C G37A,0.000165 ± 3.8e-05
4,G29C U31A,0.000731 ± 0.00017
5,U30A A33U C34A A36C G37C U57G,< 1e-05
6,U30A G32C,0.000203 ± 5.8e-05
7,U30C C34A G60C C68U,< 1e-05
8,U30G A33U G35A A64G,< 1e-05
9,U30G G32C,0.000134 ± 1.6e-05
